# The supplement of paper PMC8728848
# This is one part of the list.
# B1: EcCDA (Encephalitazoon cuniculi), Q8SU65 (protein)
# chain: MLLCLLYFTSSWCSGSDVPDVCTNSGMIAINFVDGPVRGVTDRILNTLDELGVKATFSFTVNQKAVGNVGQLYRRAVEEGHNVALRVDPSMDEGYQCLSQDALENNVDREIDTIDGLSGTEIRYAAVPICNGQVNSEMYNILTERGVLPVGYTFCPYDYDDPVGEFESMIEGSDPKHHSFIILMHDGQEADTSRLENMVKIGKDKGYRFVNMDECLQGYKGAPGDPELSLRGKGVESIGKGFLPFFLMMLVRLL
# How the values were obtained:
# Experiment in all cases: glycan array binding signal (z-score within array); higher = stronger binding
# Conditions in all cases: glycan notation: IUPAC condensed, linker removed
# Kdn(a2-3)Gal(b1-4)GlcNAc = molecular target: Kdn(a2-3)Gal(b1-4)GlcNAc
# In short: (§1)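 Glycan array data came from 3228 arrays in the Consortium for Functional Glycomics database, and only arrays with an available protein sequence were kept. Glycan names were put into IUPAC-condensed notation, and columns mapping to the same glycan were averaged. The binding signal is a within-array Z-score, averaged across arrays of one protein sequence run at different concentrations or buffers and across linkers. A negative Z-score can be read as non-binding.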
# [1] = molecular target: Man(a1-2)Man(a1-2)Man(a1-3)Man
# In short: as §1
# [2] = molecular target: Man(a1-2)Man(a1-2)Man(a1-3)[Man(a1-2)Man(a1-3)[Man(a1-2)Man(a1-6)]Man(a1-6)]Man(b1-4)GlcNAc(b1-4)GlcNAc
# In short: as §1
# [3] = molecular target: Man(a1-2)Man(a1-2)Man(a1-3)[Man(a1-2)Man(a1-6)[Man(a1-3)]Man(a1-6)]Man(b1-4)GlcNAc(b1-4)GlcNAc
# In short: as §1
# [4] = molecular target: Man(a1-2)Man(a1-2)Man(a1-6)[Man(a1-3)]Man
# In short: as §1
# Man(a1-2)Man(a1-3)Man = molecular target: Man(a1-2)Man(a1-3)Man
# In short: as §1
# [5] = molecular target: Man(a1-2)Man(a1-3)[Man(a1-2)Man(a1-6)]Man
# In short: as §1
# [6] = molecular target: Man(a1-2)Man(a1-3)[Man(a1-3)[Man(a1-6)]Man(a1-6)]Man(b1-4)GlcNAc(b1-4)GlcNAc
# In short: as §1
# [7] = molecular target: Man(a1-2)Man(a1-3)[Man(a1-6)]Man(a1-6)[Man(a1-2)Man(a1-3)]Man(b1-4)GlcNAc(b1-4)GlcNAc
# In short: as §1
# Man(a1-3)[Man(a1-6)]Man = molecular target: Man(a1-3)[Man(a1-6)]Man
# In short: as §1
# [8] = molecular target: Man(a1-3)[Man(a1-6)]Man(a1-6)[Man(a1-3)]Man(b1-4)GlcNAc(b1-4)GlcNAc
# In short: as §1
# [9] = molecular target: Man(a1-3)[Man(a1-6)]Man(b1-4)GlcNAc(b1-4)GlcNAc
# In short: as §1
# Man(b1-4)GlcNAc = molecular target: Man(b1-4)GlcNAc
# In short: as §1
# Neu5Ac(a2-3)Gal = molecular target: Neu5Ac(a2-3)Gal
# In short: as §1
# [10] = molecular target: Neu5Ac(a2-3)Gal(b1-3)GalNAc
# In short: as §1
# [11] = molecular target: Neu5Ac(a2-3)Gal(b1-3)GalNAc(b1-3)Gal(a1-4)Gal(b1-4)Glc
# In short: as §1
# [12] = molecular target: Neu5Ac(a2-3)Gal(b1-3)GalNAc(b1-4)[Neu5Ac(a2-3)]Gal(b1-4)Glc
# In short: as §1
# [13] = molecular target: Neu5Ac(a2-3)Gal(b1-3)GalNAc6S
# In short: as §1
# [14] = molecular target: Neu5Ac(a2-3)Gal(b1-3)GlcNAc
# In short: as §1
# [15] = molecular target: Neu5Ac(a2-3)Gal(b1-3)GlcNAc(b1-3)Gal(b1-4)GlcNAc
# In short: as §1
# [16] = molecular target: Neu5Ac(a2-3)Gal(b1-3)GlcNAc6S
# In short: as §1
# [17] = molecular target: Neu5Ac(a2-3)Gal(b1-3)[Fuc(a1-4)]GlcNAc
# In short: as §1
# [18] = molecular target: Neu5Ac(a2-3)Gal(b1-3)[Fuc(a1-4)]GlcNAc(b1-3)Gal(b1-4)[Fuc(a1-3)]GlcNAc
# In short: as §1
# [19] = molecular target: Neu5Ac(a2-3)Gal(b1-3)[Neu5Ac(a2-3)Gal(b1-4)]GlcNAc
# In short: as §1
# [20] = molecular target: Neu5Ac(a2-3)Gal(b1-3)[Neu5Ac(a2-6)]GalNAc
# In short: as §1
# Neu5Ac(a2-3)Gal(b1-4)Glc = molecular target: Neu5Ac(a2-3)Gal(b1-4)Glc
# In short: as §1
# [21] = molecular target: Neu5Ac(a2-3)Gal(b1-4)GlcNAc
# In short: as §1
# [22] = molecular target: Neu5Ac(a2-3)Gal(b1-4)GlcNAc(b1-3)Gal(b1-4)GlcNAc
# In short: as §1
# [23] = molecular target: Neu5Ac(a2-3)Gal(b1-4)GlcNAc(b1-3)Gal(b1-4)GlcNAc(b1-3)Gal(b1-4)GlcNAc
# In short: as §1
# [24] = molecular target: Neu5Ac(a2-3)Gal(b1-4)GlcNAc(b1-3)Gal(b1-4)[Fuc(a1-3)]GlcNAc
# In short: as §1
# [25] = molecular target: Neu5Ac(a2-3)Gal(b1-4)GlcNAc6S
# In short: as §1
# [26] = molecular target: Neu5Ac(a2-3)Gal(b1-4)[Fuc(a1-3)]GlcNAc
# In short: as §1
# [27] = molecular target: Neu5Ac(a2-3)Gal(b1-4)[Fuc(a1-3)]GlcNAc(b1-3)Gal
# In short: as §1
# [28] = molecular target: Neu5Ac(a2-3)Gal(b1-4)[Fuc(a1-3)]GlcNAc(b1-3)Gal(b1-4)GlcNAc
# In short: as §1
# [29] = molecular target: Neu5Ac(a2-3)Gal(b1-4)[Fuc(a1-3)]GlcNAc(b1-3)Gal(b1-4)[Fuc(a1-3)]GlcNAc(b1-3)Gal(b1-4)[Fuc(a1-3)]GlcNAc
# In short: as §1
# [30] = molecular target: Neu5Ac(a2-3)Gal(b1-4)[Fuc(a1-3)]GlcNAc6S
# In short: as §1
# [31] = molecular target: Neu5Ac(a2-3)Gal6S(b1-4)GlcNAc
# In short: as §1
# [32] = molecular target: Neu5Ac(a2-3)Gal6S(b1-4)[Fuc(a1-3)]GlcNAc
# In short: as §1
# Neu5Ac(a2-3)GalNAc = molecular target: Neu5Ac(a2-3)GalNAc
# In short: as §1
# [33] = molecular target: Neu5Ac(a2-3)GalNAc(b1-4)GlcNAc
# In short: as §1
# [34] = molecular target: Neu5Ac(a2-3)[GalNAc(b1-4)]Gal(b1-4)Glc
# In short: as §1
# [35] = molecular target: Neu5Ac(a2-3)[GalNAc(b1-4)]Gal(b1-4)GlcNAc
# In short: as §1
# [36] = molecular target: Neu5Ac(a2-3)[Neu5Ac(a2-6)]GalNAc
# In short: as §1
# [37] = molecular target: Neu5Ac(a2-6)Gal(b1-4)GlcNAc
# In short: as §1
# [38] = molecular target: Neu5Ac(a2-6)Gal(b1-4)GlcNAc(b1-2)Man(a1-3)[Neu5Ac(a2-6)Gal(b1-4)GlcNAc(b1-2)Man(a1-6)]Man(b1-4)GlcNAc(b1-4)GlcNAc
# In short: as §1
# [39] = molecular target: Neu5Ac(a2-6)Gal(b1-4)GlcNAc(b1-3)Gal(b1-4)GlcNAc
# In short: as §1
# [40] = molecular target: Neu5Ac(a2-6)Gal(b1-4)GlcNAc(b1-3)Gal(b1-4)[Fuc(a1-3)]GlcNAc(b1-3)Gal(b1-4)[Fuc(a1-3)]GlcNAc
# In short: as §1
# [41] = molecular target: Neu5Ac(a2-6)Gal(b1-4)GlcNAc6S
# In short: as §1
# Neu5Ac(a2-6)GalNAc = molecular target: Neu5Ac(a2-6)GalNAc
# In short: as §1
# [42] = molecular target: Neu5Ac(a2-6)GalNAc(b1-4)GlcNAc
# In short: as §1
# Neu5Ac(a2-8)Neu5Ac = molecular target: Neu5Ac(a2-8)Neu5Ac
# In short: as §1
# [43] = molecular target: Neu5Ac(a2-8)Neu5Ac(a2-3)Gal(b1-4)Glc
# In short: as §1
# [44] = molecular target: Neu5Ac(a2-8)Neu5Ac(a2-3)[GalNAc(b1-4)]Gal(b1-4)Glc
# In short: as §1
# [45] = molecular target: Neu5Ac(a2-8)Neu5Ac(a2-8)Neu5Ac
# In short: as §1
# [46] = molecular target: Neu5Ac(a2-8)Neu5Ac(a2-8)Neu5Ac(a2-3)Gal(b1-4)Glc
# In short: as §1
# [47] = molecular target: Neu5Ac(a2-8)Neu5Ac(a2-8)Neu5Ac(a2-3)[GalNAc(b1-4)]Gal(b1-4)Glc
# In short: as §1
# [48] = molecular target: Neu5Ac(a2-8)Neu5Ac(a2-8)Neu5Ac(a2-8)Neu5Ac(a2-3)[GalNAc(b1-4)]Gal(b1-4)Glc
# In short: as §1
# [49] = molecular target: Neu5Ac9Ac(a2-6)Gal(b1-4)GlcNAc
# In short: as §1
# [50] = molecular target: Neu5Gc(a2-3)Gal(b1-3)GlcNAc
# In short: as §1
# [51] = molecular target: Neu5Gc(a2-3)Gal(b1-3)[Fuc(a1-4)]GlcNAc
# In short: as §1
# Neu5Gc(a2-3)Gal(b1-4)Glc = molecular target: Neu5Gc(a2-3)Gal(b1-4)Glc
# In short: as §1
# [52] = molecular target: Neu5Gc(a2-3)Gal(b1-4)GlcNAc
# In short: as §1
# [53] = molecular target: Neu5Gc(a2-3)Gal(b1-4)[Fuc(a1-4)]GlcNAc
# In short: as §1
# [54] = molecular target: Neu5Gc(a2-6)Gal(b1-4)GlcNAc
# In short: as §1
# Neu5Gc(a2-6)GalNAc = molecular target: Neu5Gc(a2-6)GalNAc
# In short: as §1
binder,measurement,setting,value
B1,glycan array binding signal (z-score),Kdn(a2-3)Gal(b1-4)GlcNAc,-0.366
same,glycan array binding signal (z-score),[1],-0.199
same,glycan array binding signal (z-score),[2],-0.442
same,glycan array binding signal (z-score),[3],-0.317
same,glycan array binding signal (z-score),[4],-0.434
same,glycan array binding signal (z-score),Man(a1-2)Man(a1-3)Man,0.039
same,glycan array binding signal (z-score),[5],-0.257
same,glycan array binding signal (z-score),[6],-0.2
same,glycan array binding signal (z-score),[7],0.183
same,glycan array binding signal (z-score),Man(a1-3)[Man(a1-6)]Man,-0.395
same,glycan array binding signal (z-score),[8],-0.34
same,glycan array binding signal (z-score),[9],-0.243
same,glycan array binding signal (z-score),Man(b1-4)GlcNAc,-0.374
same,glycan array binding signal (z-score),Neu5Ac(a2-3)Gal,0.077
same,glycan array binding signal (z-score),[10],-0.31
same,glycan array binding signal (z-score),[11],-0.476
same,glycan array binding signal (z-score),[12],0.074
same,glycan array binding signal (z-score),[13],-0.267
same,glycan array binding signal (z-score),[14],-0.425
same,glycan array binding signal (z-score),[15],-0.306
same,glycan array binding signal (z-score),[16],0.018
same,glycan array binding signal (z-score),[17],-0.456
same,glycan array binding signal (z-score),[18],-0.421
same,glycan array binding signal (z-score),[19],-0.182
same,glycan array binding signal (z-score),[20],-0.318
same,glycan array binding signal (z-score),Neu5Ac(a2-3)Gal(b1-4)Glc,-0.322
same,glycan array binding signal (z-score),[21],-0.309
same,glycan array binding signal (z-score),[22],-0.328
same,glycan array binding signal (z-score),[23],0.109
same,glycan array binding signal (z-score),[24],-0.234
same,glycan array binding signal (z-score),[25],-0.284
same,glycan array binding signal (z-score),[26],-0.337
same,glycan array binding signal (z-score),[27],-0.446
same,glycan array binding signal (z-score),[28],-0.356
same,glycan array binding signal (z-score),[29],-0.308
same,glycan array binding signal (z-score),[30],-0.353
same,glycan array binding signal (z-score),[31],1.02
same,glycan array binding signal (z-score),[32],-0.462
same,glycan array binding signal (z-score),Neu5Ac(a2-3)GalNAc,0.071
same,glycan array binding signal (z-score),[33],0.134
same,glycan array binding signal (z-score),[34],-0.498
same,glycan array binding signal (z-score),[35],0.219
same,glycan array binding signal (z-score),[36],-0.301
same,glycan array binding signal (z-score),[37],-0.235
same,glycan array binding signal (z-score),[38],-0.02
same,glycan array binding signal (z-score),[39],-0.269
same,glycan array binding signal (z-score),[40],-0.36
same,glycan array binding signal (z-score),[41],-0.394
same,glycan array binding signal (z-score),Neu5Ac(a2-6)GalNAc,-0.425
same,glycan array binding signal (z-score),[42],-0.269
same,glycan array binding signal (z-score),Neu5Ac(a2-8)Neu5Ac,-0.391
same,glycan array binding signal (z-score),[43],-0.422
same,glycan array binding signal (z-score),[44],-0.205
same,glycan array binding signal (z-score),[45],-0.328
same,glycan array binding signal (z-score),[46],-0.326
same,glycan array binding signal (z-score),[47],-0.475
same,glycan array binding signal (z-score),[48],-0.315
same,glycan array binding signal (z-score),[49],4.58
same,glycan array binding signal (z-score),[50],-0.33
same,glycan array binding signal (z-score),[51],-0.384
same,glycan array binding signal (z-score),Neu5Gc(a2-3)Gal(b1-4)Glc,-0.262
same,glycan array binding signal (z-score),[52],-0.323
same,glycan array binding signal (z-score),[53],-0.242
same,glycan array binding signal (z-score),[54],-0.403
same,glycan array binding signal (z-score),Neu5Gc(a2-6)GalNAc,-0.188
